Data taken from the supplement of paper PMC12217912.
Some of the results follow. Sequences were assembled here from the parent chain. Inactive controls read about 0.05.

B1: TEV protease; numbered along this chain (parent)
chain: MGESLFKGPRDYNPISSSICHLTNESDGHTTSLYGIGFGPFIITNKHLFRRNNGTLVVQSLHGVFKVKDTTTLQQHLVDGRDMIIIRMPKDFPPFPQKLKFREPQREERICLVTTNFQTKSMSSMVSDTSCTFPSGDGIFWKHWIQTKDGQCGSPLVSTRDGFIVGIHSASNFTNTNNYFTSVPKNFMELLTNQEAQQWVSGWRLNADSVLWGGHKVFMVKPEEPFQPVKEATQL

Variants of: B1
Test: raw area under fraction-flipped curve 0-4 h after induction (AUC4h, not background-subtracted), DNA-recorder readout of cleavage of the substrate (dimensionless); higher = more cleavage of the substrate by the protease variant
Settings: temperature: 34 °C; time window: 0-4 h after rhamnose induction
Description: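 In vivo DNA recorder in E. coli TOP10(DE3) ΔrhaA at 34 °C. Each TEVp single-site mutant (parent TEVp 0) is paired with a single-site variant of the 7-mer TEVs (canonical ENLYFQ|S). The substrate sits between flexible linkers in a Bxb1-sfGFP-TEVs-SsrA fusion, so cleavage stabilises Bxb1 and speeds flipping of a recombination array, read by NGS. The value is the raw area under the fraction-flipped curve over 0-4 h after rhamnose induction (AUC4h), with ≥20 reads per time point. It is not background-subtracted; inactive controls average about 0.047.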
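Further: Bxb1 expression induced with 0.2% (w/v) L-rhamnose at OD600 near 0.5, cultures sampled hourly, flipped fraction per protease–substrate barcode pair counted by paired-end Illumina sequencing.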

Variant	area with substrate EALYFQS	area with substrate ECLYFQS	area with substrate EDLYFQS	area with substrate EELYFQS	area with substrate EGLYFQS	area with substrate EILYFQS	area with substrate EKLYFQS	area with substrate ELLYFQS	area with substrate EMLYFQS	area with substrate EPLYFQS	area with substrate EQLYFQS	area with substrate ERLYFQS	area with substrate ESLYFQS	area with substrate EVLYFQS	area with substrate EYLYFQS	area with substrate EFLYFQS	area with substrate EHLYFQS	area with substrate ETLYFQS	area with substrate EWLYFQS
MGESLFKGPRDYNPISSSICHLTNESDGHTTSLYGIGFGPFIITNKHLFRRNNGTLVVQSLHGVFKVKDTTTLQQHLVDGRDMIIIRMPKDFPPFPQKLKFREPQREERICLVTTNFQTKSMSSMVSDTSCTFPSGDGIFWKHWIQTKDGQCGSPLNSTRDGFIVGIHSASNFTNTNNYFTSVPKNFMELLTNQEAQQWVSGWRLNADSVLWGGHKVFMVKPEEPFQPVKEATQL [V157N]	0.0518	0.0434	0.0549	0.0539	0.0471	0.0527	0.0484	0.0428	0.0528	0.0493	0.0533	0.0599	0.0581	0.0617	0.0585				
MGESLFKGPRDYNPISSSICHLTNESDGHTTSLYGIGFGPFIITNKHLFRRNNGTLVVQSLHGVFKVKDTTTLQQHLVDGRDMIIIRMPKDFPPFPQKLKFREPQREERICLVTTNFQTKSMSSMVSDTSCTFPSGDGIFWKHWIQTKDGQCGSPLRSTRDGFIVGIHSASNFTNTNNYFTSVPKNFMELLTNQEAQQWVSGWRLNADSVLWGGHKVFMVKPEEPFQPVKEATQL [V157R]	0.0834	0.0553	0.0653		0.0638	0.0676	0.0662	0.0572	0.0749	0.0705			0.0692	0.092		0.0664	0.0676	0.0812	0.0754
MGESLFKGPRDYNPISSSICHLTNESDGHTTSLYGIGFGPFIITNKHLFRRNNGTLVVQSLHGVFKVKDTTTLQQHLVDGRDMIIIRMPKDFPPFPQKLKFREPQREERICLVTTNFQTKSMSSMVSDTSCTFPSGDGIFWKHWIQTKDGQCGSPLVHTRDGFIVGIHSASNFTNTNNYFTSVPKNFMELLTNQEAQQWVSGWRLNADSVLWGGHKVFMVKPEEPFQPVKEATQL [S158H]	0.0508	0.0503	0.0569	0.115	0.0447	0.0559		0.0464	0.0329	0.0464		0.0615	0.0612	0.041	0.0556		0.0543	0.0405	0.0603
MGESLFKGPRDYNPISSSICHLTNESDGHTTSLYGIGFGPFIITNKHLFRRNNGTLVVQSLHGVFKVKDTTTLQQHLVDGRDMIIIRMPKDFPPFPQKLKFREPQREERICLVTTNFQTKSMSSMVSDTSCTFPSGDGIFWKHWIQTKDGQCGSPLVSERDGFIVGIHSASNFTNTNNYFTSVPKNFMELLTNQEAQQWVSGWRLNADSVLWGGHKVFMVKPEEPFQPVKEATQL [T159E]	0.0905	0.105	0.111			0.104	0.097	0.124	0.129			0.0914		0.0772	0.0968			0.124	0.101
MGESLFKGPRDYNPISSSICHLTNESDGHTTSLYGIGFGPFIITNKHLFRRNNGTLVVQSLHGVFKVKDTTTLQQHLVDGRDMIIIRMPKDFPPFPQKLKFREPQREERICLVTTNFQTKSMSSMVSDTSCTFPSGDGIFWKHWIQTKDGQCGSPLVSGRDGFIVGIHSASNFTNTNNYFTSVPKNFMELLTNQEAQQWVSGWRLNADSVLWGGHKVFMVKPEEPFQPVKEATQL [T159G]	0.128	0.126		0.127			0.109	0.0978	0.144		0.0893						0.0968	0.104	0.127
MGESLFKGPRDYNPISSSICHLTNESDGHTTSLYGIGFGPFIITNKHLFRRNNGTLVVQSLHGVFKVKDTTTLQQHLVDGRDMIIIRMPKDFPPFPQKLKFREPQREERICLVTTNFQTKSMSSMVSDTSCTFPSGDGIFWKHWIQTKDGQCGSPLVSYRDGFIVGIHSASNFTNTNNYFTSVPKNFMELLTNQEAQQWVSGWRLNADSVLWGGHKVFMVKPEEPFQPVKEATQL [T159Y]	0.111	0.115	0.131	0.0801		0.0873		0.0796		0.109	0.123	0.122	0.0945	0.0971			0.102	0.146	0.0814
MGESLFKGPRDYNPISSSICHLTNESDGHTTSLYGIGFGPFIITNKHLFRRNNGTLVVQSLHGVFKVKDTTTLQQHLVDGRDMIIIRMPKDFPPFPQKLKFREPQREERICLVTTNFQTKSMSSMVSDTSCTFPSGDGIFWKHWIQTKDGQCGSPLVSTADGFIVGIHSASNFTNTNNYFTSVPKNFMELLTNQEAQQWVSGWRLNADSVLWGGHKVFMVKPEEPFQPVKEATQL [R160A]	0.118		0.116		0.0915	0.103	0.124	0.095	0.107	0.108		0.0974	0.109		0.0936	0.104		0.11	
MGESLFKGPRDYNPISSSICHLTNESDGHTTSLYGIGFGPFIITNKHLFRRNNGTLVVQSLHGVFKVKDTTTLQQHLVDGRDMIIIRMPKDFPPFPQKLKFREPQREERICLVTTNFQTKSMSSMVSDTSCTFPSGDGIFWKHWIQTKDGQCGSPLVSTRDHFIVGIHSASNFTNTNNYFTSVPKNFMELLTNQEAQQWVSGWRLNADSVLWGGHKVFMVKPEEPFQPVKEATQL [G162H]	0.103	0.0908	0.111	0.105		0.0951	0.0891	0.0762		0.106	0.109	0.0824		0.104	0.0999		0.0927		
MGESLFKGPRDYNPISSSICHLTNESDGHTTSLYGIGFGPFIITNKHLFRRNNGTLVVQSLHGVFKVKDTTTLQQHLVDGRDMIIIRMPKDFPPFPQKLKFREPQREERICLVTTNFQTKSMSSMVSDTSCTFPSGDGIFWKHWIQTKDGQCGSPLVSTRDGFEVGIHSASNFTNTNNYFTSVPKNFMELLTNQEAQQWVSGWRLNADSVLWGGHKVFMVKPEEPFQPVKEATQL [I164E]	0.0698	0.0427	0.0613	0.0557		0.0522	0.0497	0.0452		0.0279	0.0541		0.0444	0.049	0.0525				0.046
